Measured values as given in patent US20240360208A1.
Results are given in words; binding and its absence hold for the method and conditions named. Some results given as binding are weak or reduced against the parent protein; the word gives no strength.

Amino acid sequences for entries named in this document (tags omitted). A change or cut given only in a name is not applied to a line headed by its entry.
UniProt P13500: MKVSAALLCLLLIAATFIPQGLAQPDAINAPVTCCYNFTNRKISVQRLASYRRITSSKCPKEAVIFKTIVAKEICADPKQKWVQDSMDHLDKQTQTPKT

B1: 1A5 (antibody, IgG1, V domains shown)
VH: QEQLVESGGDLVKPEGSLTLTCTASGFSFSTSYWMCWVRQAPGKGLELIACISSSIGVTYYASWAEGRFTISKTSSTTVTLQMTSLTVADTATYFCARTTDDNWNVGFNLWGPGTLVTVSS
VL: AYDMTQTPASVEVGVGGTVTIKCQASQSIGNRYLSWYQQKPGQPPKLLIYGTSTLASGVSSRFKGSGSGTQFTLTISGVESADSATYYCQQGATISYLDNAFGGGTEVVVK
B2: 1G9 (antibody, IgG1, V domains shown)
VH: QSLEESGGDLVKPGASLTLTCKASGIDFSLYSYMCWVRQAPGKGLEWIACVDAGASGSTYYASWAKGRFTISKTSSTTVTLQMTSLTAADTATYFCARGILYYTWPYPAGAIDAFDSWGPGTLVTVSS
VL: AYDMTQTPASVSEPVGGTVTIKCQASESISNYLSWYQQKPGQPPKLLIYKASTLASGVPSRFKGSGSGTEYTVTISGVQSDDAATYYCQQSYSSSNVFNTFGGGTEVVVK
B3: Humanized 11K2 (=11K2) (antibody, IgG1, V domains shown)
VH: QVQLVQSGAEVKKPGSSVKVSCKASGLTISDTYMHWVRQAPGQGLEWMGRIDPANGNTKFDPKFQGRVTITADTSTSTAYMELSSLRSEDTAVYYCARGVFGFFDYWGQGTTVTVSS
VL: DIQMTQSPSSLSASVGDRVTITCKATEDIYNRLAWYQQKPGKAPKLLISGATSLETGVPSRFSGSGSGTDYTLTISSLQPEDFATYYCQQFWSAPYTFGGGTKVEIK
B4: 1A4//2F6-PGLALA (bispecific antibody, V domains shown)
VH 1: QSLEESGGDLVKPGASLTLTCTASELDFYWICWVRQAPGKGLEWIACIGAGSSGSTYYASWAKGRFTVSKTSSTTVTLQMTSLTAADTATYFCARTGTEFTYYSLWGPGTLVTVSS
VL 1: ALVMTQTPSSVSAAVGGTVTINCQASQSVYNNNMAWYQQKPGQPPKLLIYTASSLASGVPSHFRGSGSGTQFTLTISDLESDDAATYYCAGYKSYSNDEYGFGGGTEVVVK
VH 2: QSLEESGGGLVQPEGSLTLTCTASGFSFNNNYYMCWVRQAPGKGLEWIGCISTDDSNTHYASWAQGRFTISKASSTALTLQVAGLTVADMATYFCARDAHFTSYGYGFDLWGPGTLVTVSS
VL 2: DIVMTQTPASVSAAVGGTVSINCRASEDIENLVAWYQQKPGQPPKLLIYQASKLASGVPSRFKGSGSGAEFTLTIGDLESADAATYYCQGDYGSGWIMYSFGGGTDLVVK
B5: 1A4//2F6-WT IgG1 (bispecific antibody, V domains shown)
VH 1: B4 VH 1
VL 1: B4 VL 1
VH 2: B4 VH 2
VL 2: B4 VL 2

Columns and labels:
[1] = molecular target: huCCL13 wild type; experiment: SPR (Biacore T200), 25 °C, ACES pH 7.4; antibody captured on anti-human IgG (Fc), chemokine injected at 5 nM and 20 nM
[2] = molecular target: human CCL2 (MCP1) - wild type (wt) (human) (UniProt P13500); experiment: SPR, C1 chip, anti-human Fc capture, 25 C, pH 7.4, Langmuir 1:1
[3] = molecular target: human CCL2 (MCP1) - wild type (wt) (human) (UniProt P13500); experiment: SEC-MALLS of 1:1 antibody:CCL2 mixes; + low quantity of multi-/oligomers

| Binder | binding [1] | binding [2] | binding [3] |
| --- | --- | --- | --- |
| B1 | no binding (tested: 20 nM) | – | – |
| B2 | no binding (tested: 20 nM) | – | – |
| B3 | no binding (tested: 20 nM) | – | – |
| B4 | – | binds | – |
| B5 | – | binds | binds |
